In patent US20240262848A1, “HETEROCYCLIC COMPOUNDS, COMPOSITIONS THEREOF, AND METHODS OF TREATMENT THEREWITH” (BeiGene, Ltd., priority 2022, published 2024):

molecular target: GST-tagged GDP-loaded WT KRAS (amino acids 1-169) (Homo sapiens, UniProt P01116); assay: KRAS WT probe displacement assay (run with the KRAS G12V assay, TR-FRET); type: binding; conditions: Table 4; WT KRAS 3 nM, biotinylated probe 1 60 nM

Structure (SMILES) | IC50 [nM]
CN1c2nc(OC[C@@]34CCCN3C[C@H](F)C4)nc3c(F)c(-c4cc(N)cc(Cl)c4C(F)(F)F)nc(c23)OCCC12CC(O)C2 (stereo partly drawn) [Example 33, 5′-(5-amino-3-chloro-2-(trifluoromethyl)phenyl)-4′-fluoro-2′-(((2R,7aS)-2-fluorotetrahydro-1H-pyrrolizin-7a(5H)-yl)methoxy)-11′-methyl-8′,9′-dihydro-11′H-7′-oxa-1′,3′,6′,11′-tetraazaspiro[cyclobutane-1,10′-cycloocta[de]naphthalen]-1′(11a′), 2′0.3a′, 3 al′(6a′), 5′-pentaen-3-ol] | 0.53
CN1c2nc(OC[C@@]34CCCN3C[C@H](F)C4)nc3c(F)c(-c4cc(N)cc(Cl)c4C(F)(F)F)nc(c23)O[C@H]2CCOC[C@@H]21 [Example 50, 3-chloro-5-((7aS,11aS)-4-fluoro-2-(((2R,7aS)-2-fluorotetrahydro-1H-pyrrolizin-7a(5H)-yl)methoxy)-12-methyl-7a, 8,11a, 12-tetrahydro-9H, 11H-7,10-dioxa-1,3,6,12-tetraazapleiaden-5-yl)-4-(trifluoromethyl)aniline] | 0.61
CC1CCOc2nc(-c3cc(N)cc(Cl)c3C(F)(F)F)c(F)c3nc(OC[C@@]45CCCN4C[C@H](F)C5)nc(c23)N1C (stereo partly drawn) [Example 6, 3-chloro-5-(4-fluoro-2-(((2R,7aS)-2-fluorotetrahydro-1H-pyrrolizin-7a(5H)-yl)methoxy)-10,11-dimethyl-8,9,10,11-tetrahydro-7-oxa-1,3,6,11-tetraazacycloocta[de]naphthalen-5-yl)-4-(trifluoromethyl)aniline] | 5
Cc1cc(N)cc(-c2nc3c4c(nc(OC[C@@]56CCCN5C[C@H](F)C6)nc4c2F)N(C)C2(CCO3)CC2)c1C(F)(F)F [Example 53, 3-(4-fluoro-2-(((2R,7aS)-2-fluorotetrahydro-1H-pyrrolizin-7a(5H)-yl)methoxy)-11-methyl-8,9-dihydro-11H-7-oxa-1,3,6,11-tetraazaspiro[cycloocta[de]naphthalene-10,1′-cyclopropan]-1(11a), 2,3a, 3 al(6a), 5-pentaen-5-yl)-5-methyl-4-(trifluoromethyl)aniline] | 1.9
CC1COc2nc(-c3cc(N)cc(Cl)c3C(F)(F)F)c(F)c3nc(OC[C@@]45CCCN4C[C@H](F)C5)nc(c23)N1C (stereo partly drawn) [Example 22, 3-chloro-5-(4-fluoro-2-(((2R,7aS)-2-fluorotetrahydro-1H-pyrrolizin-7a(5H)-yl)methoxy)-9,10-dimethyl-9,10-dihydro-8H-7-oxa-1,3,6,10-tetraazacyclohepta[de]naphthalen-5-yl)-4-(trifluoromethyl)aniline] | 12
CN1c2nc(OC[C@@]34CCCN3C[C@H](F)C4)nc3c(F)c(-c4cc(N)cc(Cl)c4C(F)(F)F)nc(c23)OCC12CCC2 [Example 24, 3-chloro-5-(4′-fluoro-2′-(((2R,7aS)-2-fluorotetrahydro-1H-pyrrolizin-7a(5H)-yl)methoxy)-10′-methyl-8′H, 10′H-7′-oxa-1′,3′,6′,10′-tetraazaspiro[cyclobutane-1,9′-cyclohepta[de]naphthalen]-1′(10a′), 2′,3a′, 3 al′(6a′), 5′-pentaen-5′-yl)-4-(trifluoromethyl)aniline] | 4.2

molecular target: GST-tagged GDP-loaded WT KRAS (amino acids 1-188) (Homo sapiens, UniProt P01116); assay: KRAS WT probe displacement assay (run with the KRAS G12D assay, TR-FRET); type: binding; conditions: Table 5; WT KRAS 3 nM, biotinylated probe 1 60 nM

Structure (SMILES) | IC50 [nM]
CN(C)CCN1c2nc(OC[C@@]34CCCN3C[C@H](F)C4)nc3c(F)c(-c4cc(N)cc(Cl)c4C(F)(F)F)nc(c23)OCCC12COC2 [Example 44, 3-chloro-5-(11-(2-(dimethylamino)ethyl)-4-fluoro-2-(((2R,7aS)-2-fluorotetrahydro-1H-pyrrolizin-7a(5H)-yl)methoxy)-8,9-dihydro-11H-7-oxa-1,3,6,11-tetraazaspiro[cycloocta[de]naphthalene-10,3′-oxetan]-1(11a), 2,3a, 4,6-pentaen-5-yl)-4-(trifluoromethyl)aniline] | 3.4
